Drawing on publication PMC3823767, “The ATP-Mediated Regulation of KaiB-KaiC Interaction in the Cyanobacterial Circadian Clock” (PLoS ONE, 2013), this text covers binding for 3 molecules.

No constants are given. Whether binding was seen depends on the method and setting. Some entries that bind do so weakly or less than the wild type.

Test [1] addresses T1, KaiC_(S431D&T432D) (KaiCDD) (Thermosynechococcus elongatus BP-1 (printed: Thermocynechococcus elongatus BP-1)) (UniProt Q79V60).
T1 sequence: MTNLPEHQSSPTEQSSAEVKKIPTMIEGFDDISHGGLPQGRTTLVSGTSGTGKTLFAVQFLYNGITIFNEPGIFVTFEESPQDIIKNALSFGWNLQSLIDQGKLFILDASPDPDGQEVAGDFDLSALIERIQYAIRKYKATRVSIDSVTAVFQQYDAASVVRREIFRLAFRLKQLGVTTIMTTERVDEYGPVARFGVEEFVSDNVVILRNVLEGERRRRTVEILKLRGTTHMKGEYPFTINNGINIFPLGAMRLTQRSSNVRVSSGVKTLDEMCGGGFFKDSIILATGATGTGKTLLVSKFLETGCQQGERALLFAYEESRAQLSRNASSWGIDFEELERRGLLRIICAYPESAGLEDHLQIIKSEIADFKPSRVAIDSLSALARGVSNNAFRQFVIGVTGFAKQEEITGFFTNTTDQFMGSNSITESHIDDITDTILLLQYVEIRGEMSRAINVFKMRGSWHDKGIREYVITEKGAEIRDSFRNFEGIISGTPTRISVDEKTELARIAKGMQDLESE
As to the kind of experiment: condition: only 1 mM ATP without MgCl2, KaiCDD in the preformed complex with KaiB_(1-94); native gel or EMSA; preformed KaiB1-94-KaiC monomer complex (15 μM KaiB1-94, 5 μM KaiC, 4 °C, 16 h), then 1 mM ATP without MgCl2, 4 °C, 6 h; both purified.

The target in test [2] is T1, KaiC_(S431D&T432D) (KaiCDD) (Thermosynechococcus elongatus BP-1 (printed: Thermocynechococcus elongatus BP-1)). As to the kind of experiment: condition: only KaiCDD hexamerised with ATP without Mg2+; native gel or EMSA; KaiCDD hexamerised with ATP without Mg2+ (KaiCDD^6mer (ATP)), with KaiB1-94 in the presence of 1 mM ATP, 4 °C; both purified. On the technique in general: In EMSA bound probe runs differently from free probe, usually more slowly.

Test [3] deals with T2, KaiC_(K53H/DD) (Thermosynechococcus elongatus BP-1 (printed: Thermocynechococcus elongatus BP-1)) (UniProt Q79V60).
T2 sequence: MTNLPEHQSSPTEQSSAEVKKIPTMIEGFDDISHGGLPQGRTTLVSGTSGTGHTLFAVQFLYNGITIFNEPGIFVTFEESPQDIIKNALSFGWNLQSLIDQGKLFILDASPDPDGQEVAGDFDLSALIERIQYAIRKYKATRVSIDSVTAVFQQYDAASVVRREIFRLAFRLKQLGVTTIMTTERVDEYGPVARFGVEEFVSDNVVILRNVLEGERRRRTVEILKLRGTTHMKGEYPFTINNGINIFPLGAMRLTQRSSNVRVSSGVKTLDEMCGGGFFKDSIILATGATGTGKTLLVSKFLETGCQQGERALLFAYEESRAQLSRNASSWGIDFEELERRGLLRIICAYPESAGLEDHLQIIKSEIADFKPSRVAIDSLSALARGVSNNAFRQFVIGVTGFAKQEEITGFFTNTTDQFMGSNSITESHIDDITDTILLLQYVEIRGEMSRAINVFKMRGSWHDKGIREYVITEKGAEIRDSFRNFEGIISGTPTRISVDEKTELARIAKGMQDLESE
As to the kind of experiment: condition: only KaiC hexamerised with Mg-ATP (5 μM KaiB_(1-94), 1 μM KaiC hexamer); native gel or EMSA; KaiC hexamer (formed with Mg-ATP, 1 μM) with 5 μM KaiB1-94 in the presence of Mg-ATP at 4 °C; native PAGE, complex bands checked by second-dimension SDS-PAGE; both purified.

For test [4], the target named is T1, KaiC_(S431D&T432D) (KaiCDD) (Thermosynechococcus elongatus BP-1 (printed: Thermocynechococcus elongatus BP-1)). As to the kind of experiment: native gel or EMSA; KaiCDD hexamerised with Mg-AMPPNP, with KaiB1-94 in the presence of 1 mM Mg-AMPPNP, 4 °C; both purified.
For test [5] the target is unchanged. As to the kind of experiment: native gel or EMSA; KaiCDD hexamerised with Mg-ATPγS, with KaiB1-94 in the presence of 1 mM Mg-ATPγS, 4 °C; both purified.
Test [6] addresses T3, N-terminal domain mutant protein of KaiC, residues 1 to 268 (KaiCN) (Thermosynechococcus elongatus BP-1 (printed: Thermocynechococcus elongatus BP-1)) (UniProt Q79V60).
T3 sequence: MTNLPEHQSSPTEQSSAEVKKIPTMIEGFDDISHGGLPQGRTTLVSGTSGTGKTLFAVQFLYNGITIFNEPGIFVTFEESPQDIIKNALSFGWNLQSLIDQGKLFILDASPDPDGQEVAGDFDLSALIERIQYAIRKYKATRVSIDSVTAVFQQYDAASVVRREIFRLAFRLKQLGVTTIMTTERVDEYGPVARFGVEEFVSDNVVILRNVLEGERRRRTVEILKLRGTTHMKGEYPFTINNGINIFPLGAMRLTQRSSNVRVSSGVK
As to the kind of experiment: SEC; 7.5 μM KaiB1-94 with 2.5 μM KaiCN hexamer and Mg-ATP, 4 °C, 6 h; Superdex 200 in reaction buffer with 0.5 mM ATP and 5 mM MgCl2; KaiB in peak fractions detected by immunoblot; both purified. On the technique in general: Size exclusion chromatography separates by hydrodynamic size, large species first.

The target of test [7] is T4, KaiC_(S431A&T432A) (KaiCAA) (Thermosynechococcus elongatus BP-1 (printed: Thermocynechococcus elongatus BP-1)) (UniProt Q79V60).
T4 sequence: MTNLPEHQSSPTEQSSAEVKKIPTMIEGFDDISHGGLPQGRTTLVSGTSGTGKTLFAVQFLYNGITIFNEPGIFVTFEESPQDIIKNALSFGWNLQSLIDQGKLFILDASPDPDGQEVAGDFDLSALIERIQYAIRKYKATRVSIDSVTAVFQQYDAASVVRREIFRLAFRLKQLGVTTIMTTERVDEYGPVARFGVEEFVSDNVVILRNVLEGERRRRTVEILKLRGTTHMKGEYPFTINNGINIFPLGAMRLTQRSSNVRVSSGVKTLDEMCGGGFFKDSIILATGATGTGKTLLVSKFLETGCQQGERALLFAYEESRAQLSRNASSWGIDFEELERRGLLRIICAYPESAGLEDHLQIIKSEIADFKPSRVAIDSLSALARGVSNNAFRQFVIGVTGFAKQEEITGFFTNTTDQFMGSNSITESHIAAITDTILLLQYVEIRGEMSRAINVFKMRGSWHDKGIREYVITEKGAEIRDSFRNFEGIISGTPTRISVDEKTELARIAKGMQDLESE
As to the kind of experiment: native gel or EMSA; KaiC hexamer (formed with Mg-ATP, 1 μM) with 5 μM KaiB1-94 in the presence of Mg-ATP at 4 °C; native PAGE, complex bands checked by second-dimension SDS-PAGE; both purified.

For test [8], the target named is T3, N-terminal domain mutant protein of KaiC, residues 1 to 268 (KaiCN) (Thermosynechococcus elongatus BP-1 (printed: Thermocynechococcus elongatus BP-1)). The description is as above.
In test [9] the target is T1, KaiC_(S431D&T432D) (KaiCDD) (Thermosynechococcus elongatus BP-1 (printed: Thermocynechococcus elongatus BP-1)). As to the kind of experiment: native gel or EMSA; monomeric KaiC (5 μM; 1 μM for the concentration series) with KaiB1-94 or 7.5 μM KaiBWT in reaction buffer without ATP, 4 °C, 6 h (KaiC_(C/DD) also at 25 °C); 10 % native gel, CBB, densitometry; both purified.

B1: KaiC_(S431D&T432D) (KaiCDD) (natural protein, UniProt Q79V60 1-518, looked up)
chain: MTNLPEHQSSPTEQSSAEVKKIPTMIEGFDDISHGGLPQGRTTLVSGTSGTGKTLFAVQFLYNGITIFNEPGIFVTFEESPQDIIKNALSFGWNLQSLIDQGKLFILDASPDPDGQEVAGDFDLSALIERIQYAIRKYKATRVSIDSVTAVFQQYDAASVVRREIFRLAFRLKQLGVTTIMTTERVDEYGPVARFGVEEFVSDNVVILRNVLEGERRRRTVEILKLRGTTHMKGEYPFTINNGINIFPLGAMRLTQRSSNVRVSSGVKTLDEMCGGGFFKDSIILATGATGTGKTLLVSKFLETGCQQGERALLFAYEESRAQLSRNASSWGIDFEELERRGLLRIICAYPESAGLEDHLQIIKSEIADFKPSRVAIDSLSALARGVSNNAFRQFVIGVTGFAKQEEITGFFTNTTDQFMGSNSITESHIDDITDTILLLQYVEIRGEMSRAINVFKMRGSWHDKGIREYVITEKGAEIRDSFRNFEGIISGTPTRISVDEKTELARIAKGMQDLESE
notes: KaiC, Thermosynechococcus elongatus BP-1, subunit of 518 amino acid residues, aspartate at the two phosphorylation sites; Used as monomer (KaiC^1mer, no ATP) and as hexamer (KaiC^6mer; with Mg-ATP, ATP, Mg-AMPPNP, Mg-ATPγS or Mg-ADP-AlFx); the assay tells which; also called KaiCDD^1mer; KaiCDD^6mer
Regarding B1, the binding result in test [1] is given as “no binding”.

B2: mutant KaiB with a C-terminal deletion of residues 95 to 108 (KaiB1-94) (domain or fragment, UniProt Q79V61 1-94, looked up)
chain: MAPLRKTYVLKLYVAGNTPNSVRALKTLNNILEKEFKGVYALKVIDVLKNPQLAEEDKILATPTLAKVLPPPVRRIIGDLSNREKVLIGLDLLY
notes: KaiB, Thermosynechococcus elongatus BP-1, residues 1-94 (C-terminal residues 95-108 deleted)
Take B2: the binding result in [2] is listed as “no binding”; in test [3], “no binding”; in [4] it was “no binding (condition: KaiCDD hexamerised with Mg-AMPPNP)”; in test [5], “no binding (condition: KaiCDD hexamerised with Mg-ATPγS)”; in test [6] it was “binds weakly”; in test [7], “no binding (tested: 5 μM KaiB_(1-94), 1 μM KaiC hexamer)”. Moreover, the binding entry in [8] is “no binding (condition: KaiCN hexamerised with Mg-ATP)”.

B3: wild-type KaiB (KaiBWT) (natural protein, UniProt Q79V61 1-108, looked up)
chain: MAPLRKTYVLKLYVAGNTPNSVRALKTLNNILEKEFKGVYALKVIDVLKNPQLAEEDKILATPTLAKVLPPPVRRIIGDLSNREKVLIGLDLLYEEIGDQAEDDLGLE
notes: KaiB, Thermosynechococcus elongatus BP-1, wild type, subunit of 108 amino acid residues; also called KaiBWT^4mer; KaiB^4mer
In the case of B3, in test [9], the binding entry was “binds weakly”.
